Results are given in words; binding and its absence hold for the method and conditions named. In cells and extracts the contact can be indirect. Some entries that bind do so weakly or less than the wild type. For part of these data: Where a sequence is shown, tags or fusion partners need not be part of it. Blank lines part the entries; values can stand above or below the binder they belong to.
What was measured:
[1] = target: full-length NRBP1, differently tagged versions (fig. S8C) (human) (UniProt Q9UHY1); assay: co-IP; co-expression of differently tagged versions of full-length NRBP1 and NRBP2; co-immunoprecipitation (fig. S8C)
[2] = target: full-length NRBP2, differently tagged versions (fig. S8C) (human) (UniProt Q9NSY0); assay: as above
[3] = target: isolated CCTL1 domain of WNK1 (EGFP-WNK1 450-600) (human) (UniProt Q9H4A3); assay: co-IP; isolated CCTL1 or CCTL2 domain of WNK1 co-expressed with full-length TSC22D2 or TSC22D4, wild type or RΦ-motif mutants (fig. S8, E and F)
[4] = target: isolated CCTL2 domain of WNK1 (EGFP-WNK1 1056-1217) (human) (UniProt Q9H4A3); assay: as above
[5] = target: T1, GFP-TSC22D2 full-length (FL) WT (human) (UniProt O75157); assay: co-IP; HEK293 co-transfected with GFP-TSC22D2 or GFP-TSC22D4 (full length) and FLAG-tagged full-length or C-terminally deleted TSC22D2/TSC22D4; immunoprecipitation and immunoblotting (Fig. 2F); lysis/IP buffer 50 mM tris-HCl pH 7.5, 1% NP-40, 100 mM NaCl
T1 sequence: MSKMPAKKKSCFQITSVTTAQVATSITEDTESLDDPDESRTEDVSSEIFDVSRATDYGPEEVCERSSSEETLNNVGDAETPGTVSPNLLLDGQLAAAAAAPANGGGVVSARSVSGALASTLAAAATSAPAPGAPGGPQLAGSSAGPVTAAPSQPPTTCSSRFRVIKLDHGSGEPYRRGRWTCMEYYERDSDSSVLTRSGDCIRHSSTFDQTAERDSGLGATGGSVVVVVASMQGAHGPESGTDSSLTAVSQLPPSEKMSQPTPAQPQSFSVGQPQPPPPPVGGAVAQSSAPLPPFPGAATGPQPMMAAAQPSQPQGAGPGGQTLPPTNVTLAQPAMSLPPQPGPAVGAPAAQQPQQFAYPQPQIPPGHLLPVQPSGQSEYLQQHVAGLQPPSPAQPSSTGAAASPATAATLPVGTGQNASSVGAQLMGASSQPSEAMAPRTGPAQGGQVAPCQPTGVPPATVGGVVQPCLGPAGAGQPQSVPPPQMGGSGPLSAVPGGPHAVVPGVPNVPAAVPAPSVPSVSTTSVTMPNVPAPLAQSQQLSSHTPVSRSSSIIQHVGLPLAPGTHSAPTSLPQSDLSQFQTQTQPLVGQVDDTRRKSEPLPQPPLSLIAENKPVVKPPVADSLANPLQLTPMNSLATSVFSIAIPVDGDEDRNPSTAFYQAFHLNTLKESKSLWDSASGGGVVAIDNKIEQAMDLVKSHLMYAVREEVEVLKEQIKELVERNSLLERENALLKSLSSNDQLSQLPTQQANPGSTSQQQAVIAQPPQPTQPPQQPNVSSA

Sequences of proteins named here, by UniProt entry; tags and fusion partners are left off. A change or cut given only in a name is not applied to a line headed by its entry. Residues count along the entry.
UniProt Q9UHY1: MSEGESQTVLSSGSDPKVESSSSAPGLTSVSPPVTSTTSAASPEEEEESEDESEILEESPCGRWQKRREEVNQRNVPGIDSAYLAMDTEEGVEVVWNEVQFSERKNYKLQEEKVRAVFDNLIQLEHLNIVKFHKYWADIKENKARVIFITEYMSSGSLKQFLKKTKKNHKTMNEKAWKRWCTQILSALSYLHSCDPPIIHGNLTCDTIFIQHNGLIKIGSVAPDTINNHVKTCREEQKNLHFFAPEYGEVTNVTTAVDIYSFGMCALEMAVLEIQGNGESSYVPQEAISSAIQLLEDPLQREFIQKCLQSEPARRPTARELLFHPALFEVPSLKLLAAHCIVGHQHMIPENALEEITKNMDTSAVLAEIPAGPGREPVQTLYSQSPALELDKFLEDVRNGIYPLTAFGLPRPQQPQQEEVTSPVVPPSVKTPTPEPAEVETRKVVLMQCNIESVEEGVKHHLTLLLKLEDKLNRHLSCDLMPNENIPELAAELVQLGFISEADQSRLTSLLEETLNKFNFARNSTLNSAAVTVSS
isolated CCTL1 domain of WNK1 (EGFP-WNK1 450-600) (Q9H4A3, residues 450-600): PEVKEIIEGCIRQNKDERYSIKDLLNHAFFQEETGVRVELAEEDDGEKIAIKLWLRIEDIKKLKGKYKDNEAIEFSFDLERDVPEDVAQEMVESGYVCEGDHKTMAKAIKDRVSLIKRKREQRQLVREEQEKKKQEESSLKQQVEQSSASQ
isolated CCTL2 domain of WNK1 (EGFP-WNK1 1056-1217) (Q9H4A3, residues 1056-1217): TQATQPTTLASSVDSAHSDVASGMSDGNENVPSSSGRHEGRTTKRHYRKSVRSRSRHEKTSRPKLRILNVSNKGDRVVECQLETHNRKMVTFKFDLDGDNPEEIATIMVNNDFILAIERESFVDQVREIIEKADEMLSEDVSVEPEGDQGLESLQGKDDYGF

[6] = target: GFP-NRBP1 (N-terminal GFP knock-in at the endogenous NRBP1 locus) (human (endogenous in HEK293)) (UniProt Q9UHY1); assay: co-IP; GFP-NRBP1 KI HEK293 cells with or without 0.5 M sorbitol (1 to 30 min; WNK inhibitors in Fig. 4F); immunoprecipitation with GFP nanobody beads; immunoblot of endogenous partners (Figs. 4E,F, 7C, fig. S5A)
[7] = target: T2, GFP-TSC22D4 full-length (FL) WT (human) (UniProt Q9Y3Q8); assay: co-IP; HEK293 co-transfected with GFP-TSC22D2 or GFP-TSC22D4 (full length) and FLAG-tagged full-length or C-terminally deleted TSC22D2/TSC22D4; immunoprecipitation and immunoblotting (Fig. 2F); lysis/IP buffer 50 mM tris-HCl pH 7.5, 1% NP-40, 100 mM NaCl
T2 sequence: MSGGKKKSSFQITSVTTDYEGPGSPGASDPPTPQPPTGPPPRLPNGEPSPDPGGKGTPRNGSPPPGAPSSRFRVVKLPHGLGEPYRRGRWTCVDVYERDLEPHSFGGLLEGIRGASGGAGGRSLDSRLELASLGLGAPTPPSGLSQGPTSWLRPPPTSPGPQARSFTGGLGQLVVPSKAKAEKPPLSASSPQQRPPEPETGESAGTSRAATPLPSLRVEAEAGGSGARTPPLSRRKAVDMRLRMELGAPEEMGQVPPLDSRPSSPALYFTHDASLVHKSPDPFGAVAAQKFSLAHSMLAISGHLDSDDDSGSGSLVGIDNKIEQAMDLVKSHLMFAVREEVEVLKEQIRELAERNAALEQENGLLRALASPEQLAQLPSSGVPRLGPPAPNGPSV

binding [1]: binds | binding [2]: binds
B1: full-length NRBP2, differently tagged versions (fig. S8C) (protein, UniProt Q9NSY0 1-501)
chain: MAAPEPAPRRAREREREREDESEDESDILEESPCGRWQKRREQVNQGNMPGLQSTFLAMDTEEGVEVVWNELHFGDRKAFAAHEEKIQTVFEQLVLVDHPNIVKLHKYWLDTSEACARVIFITEYVSSGSLKQFLKKTKKNHKAMNARAWKRWCTQILSALSFLHACSPPIIHGNLTSDTIFIQHNGLIKIGSVWHRIFSNALPDDLRSPIRAEREELRNLHFFPPEYGEVADGTAVDIFSFGMCALEMAVLEIQTNGDTRVTEEAIARARHSLSDPNMREFILCCLARDPARRPSAHSLLFHRVLFEVHSLKLLAAHCFIQHQYLMPENVVEEKTKAMDLHAVLAELPRPRRPPLQWRYSEVSFMELDKFLEDVRNGIYPLMNFAATRPLGLPRVLAPPPEEVQKAKTPTPEPFDSETRKVIQMQCNLERSEDKARWHLTLLLVLEDRLHRQLTYDLLPTDSAQDLASELVHYGFLHEDDRMKLAAFLESTFLKYRGTQA

binding [3]: binds | binding [4]: binds | binding [5]: binds
B2: FLAG-TSC22D4 (full length, wild type) (protein, UniProt Q9Y3Q8 1-395)
chain: MSGGKKKSSFQITSVTTDYEGPGSPGASDPPTPQPPTGPPPRLPNGEPSPDPGGKGTPRNGSPPPGAPSSRFRVVKLPHGLGEPYRRGRWTCVDVYERDLEPHSFGGLLEGIRGASGGAGGRSLDSRLELASLGLGAPTPPSGLSQGPTSWLRPPPTSPGPQARSFTGGLGQLVVPSKAKAEKPPLSASSPQQRPPEPETGESAGTSRAATPLPSLRVEAEAGGSGARTPPLSRRKAVDMRLRMELGAPEEMGQVPPLDSRPSSPALYFTHDASLVHKSPDPFGAVAAQKFSLAHSMLAISGHLDSDDDSGSGSLVGIDNKIEQAMDLVKSHLMFAVREEVEVLKEQIRELAERNAALEQENGLLRALASPEQLAQLPSSGVPRLGPPAPNGPSV

binding [6]: binds
B3: TSC22D4, endogenous (protein, UniProt Q9Y3Q8 1-395)
chain: MSGGKKKSSFQITSVTTDYEGPGSPGASDPPTPQPPTGPPPRLPNGEPSPDPGGKGTPRNGSPPPGAPSSRFRVVKLPHGLGEPYRRGRWTCVDVYERDLEPHSFGGLLEGIRGASGGAGGRSLDSRLELASLGLGAPTPPSGLSQGPTSWLRPPPTSPGPQARSFTGGLGQLVVPSKAKAEKPPLSASSPQQRPPEPETGESAGTSRAATPLPSLRVEAEAGGSGARTPPLSRRKAVDMRLRMELGAPEEMGQVPPLDSRPSSPALYFTHDASLVHKSPDPFGAVAAQKFSLAHSMLAISGHLDSDDDSGSGSLVGIDNKIEQAMDLVKSHLMFAVREEVEVLKEQIRELAERNAALEQENGLLRALASPEQLAQLPSSGVPRLGPPAPNGPSV

binding [3]: binds | binding [4]: binds | binding [7]: binds
B4: FLAG-TSC22D2 (full length, wild type) (protein, UniProt O75157 1-780)
chain: MSKMPAKKKSCFQITSVTTAQVATSITEDTESLDDPDESRTEDVSSEIFDVSRATDYGPEEVCERSSSEETLNNVGDAETPGTVSPNLLLDGQLAAAAAAPANGGGVVSARSVSGALASTLAAAATSAPAPGAPGGPQLAGSSAGPVTAAPSQPPTTCSSRFRVIKLDHGSGEPYRRGRWTCMEYYERDSDSSVLTRSGDCIRHSSTFDQTAERDSGLGATGGSVVVVVASMQGAHGPESGTDSSLTAVSQLPPSEKMSQPTPAQPQSFSVGQPQPPPPPVGGAVAQSSAPLPPFPGAATGPQPMMAAAQPSQPQGAGPGGQTLPPTNVTLAQPAMSLPPQPGPAVGAPAAQQPQQFAYPQPQIPPGHLLPVQPSGQSEYLQQHVAGLQPPSPAQPSSTGAAASPATAATLPVGTGQNASSVGAQLMGASSQPSEAMAPRTGPAQGGQVAPCQPTGVPPATVGGVVQPCLGPAGAGQPQSVPPPQMGGSGPLSAVPGGPHAVVPGVPNVPAAVPAPSVPSVSTTSVTMPNVPAPLAQSQQLSSHTPVSRSSSIIQHVGLPLAPGTHSAPTSLPQSDLSQFQTQTQPLVGQVDDTRRKSEPLPQPPLSLIAENKPVVKPPVADSLANPLQLTPMNSLATSVFSIAIPVDGDEDRNPSTAFYQAFHLNTLKESKSLWDSASGGGVVAIDNKIEQAMDLVKSHLMYAVREEVEVLKEQIKELVERNSLLERENALLKSLSSNDQLSQLPTQQANPGSTSQQQAVIAQPPQPTQPPQQPNVSSA

Source: publication PMC12266122
